The other results are listed elsewhere or left out.

To fix the notation:
B1: PhoQ; a variant is named by its letters at X, in order, P23837 (parent)
chain: MKKLLRLFFPLSLRVRFLLATAAVVLVLSLAYGMVALIGYSVSFDKTTFRLLRGESNLFYTLAKWENNKLHVELPENIDKQSPTMTLIYDENGQLLWAQRDVPWLMKMIQPDWLKSNGFHEIEADVNDTSLLLSGDHSIQQQLQEVREDDDDAEMTHSVAVNVYPATSRMPKLTIVVVDTIPVELKSSYMVWSWFIYVLSANLLLVIPLLWVAAWWSLRPIEALAKEVRELEEHNRELLNPATTRELTSLVRNLNRLLKSERERYDKYRTTLTDLTHSLKTPLXXLQXXLRSLRSEKMSVSDAEPVMLEQISRISQQIGYYLHRASMRGGTLLSRELHPVAPLLDNLTSALNKVYQRKGVNISLDISPEISFVGEQNDFVEVMGNVLDNACKYCLEFVEISARQTDEHLYIVVEDDGPGIPLSKREVIFDRGQRVDTLRPGQGVGLAVAREITEQYEGKIVAGESMLGGARMEVIFGRQHSAPKDE

The variants in the assay derive from B1. The assay is described as follows: enrichment ratio after two sorts for PhoP signalling (ratio (wild type AVST 3.29)); higher = more functional. The conditions noted are these: with PhoP (E. coli).
As for RIMT, the enrichment ratio is no more than 0.25.

Consider RFFF, for which the enrichment ratio is no more than 0.25.

In the case of KINF, the enrichment ratio was no more than 0.25.

For SGDW, the enrichment ratio was no more than 0.25.

For NPWW, the enrichment ratio is no more than 0.25.

TKMV: the enrichment ratio is 10.5.

For VVTA, the enrichment ratio was no more than 0.25.

For the variant MLEK, the enrichment ratio was no more than 0.25.

As for TQEN, the enrichment ratio was no more than 0.25.

On to ILIW, for which the enrichment ratio was no more than 0.25.

LHQY: the enrichment ratio is no more than 0.25.

For the variant HHFV, the enrichment ratio is no more than 0.25.

For the variant KRCL, the enrichment ratio is no more than 0.25.

Take KDEF: the enrichment ratio is no more than 0.25.

Regarding MKAV, the enrichment ratio is 7.84.

As to CIIF, the enrichment ratio is no more than 0.25.

On to HHMS, for which the enrichment ratio is no more than 0.25.

GGMK: the enrichment ratio is no more than 0.25.

Consider SDQC, for which the enrichment ratio was no more than 0.25.

HCCF: the enrichment ratio is no more than 0.25.

For the variant HDWK, the enrichment ratio was no more than 0.25.

As for RNCD, the enrichment ratio was no more than 0.25.

For NDDN, the enrichment ratio was no more than 0.25.

As to LYMD, the enrichment ratio was no more than 0.25.

Consider RTKC, for which the enrichment ratio is no more than 0.25.

AYSM: the enrichment ratio was 0.264.

Take LNDY: the enrichment ratio is no more than 0.25.

For the variant MNRV, the enrichment ratio was no more than 0.25.

Consider QWVQ, for which the enrichment ratio is no more than 0.25.

As for IQTT, the enrichment ratio is no more than 0.25.

As for SCFH, the enrichment ratio was no more than 0.25.

For NNMN, the enrichment ratio was no more than 0.25.

For the variant IAVG, the enrichment ratio is no more than 0.25.

In the case of LVAQ, the enrichment ratio is no more than 0.25.

TWPN: the enrichment ratio is no more than 0.25.

For IFNV, the enrichment ratio was no more than 0.25.

Take MYHC: the enrichment ratio is no more than 0.25.

With TDQN, the enrichment ratio amounted to 6.18.

For HRDM, the enrichment ratio is no more than 0.25.

For the variant VYTI, the enrichment ratio is no more than 0.25.

As for ICIK, the enrichment ratio is no more than 0.25.

Turning to KERY, the enrichment ratio is no more than 0.25.

As for PKQF, the enrichment ratio is no more than 0.25.

In the case of DVRN, the enrichment ratio was no more than 0.25.

SCGL: the enrichment ratio was 13.6.

For the variant SYDM, the enrichment ratio was no more than 0.25.

VIYK: the enrichment ratio is no more than 0.25.

With LVTF, the enrichment ratio is no more than 0.25.

For EVNA, the enrichment ratio was no more than 0.25.

As for LQPW, the enrichment ratio was no more than 0.25.

As for FGLR, the enrichment ratio was no more than 0.25.

In the case of LHWI, the enrichment ratio was no more than 0.25.

As to KRYH, the enrichment ratio was no more than 0.25.

For DVCF, the enrichment ratio was no more than 0.25.

For the variant PNAS, the enrichment ratio is no more than 0.25.

As to ITHK, the enrichment ratio was no more than 0.25.

With SILY, the enrichment ratio was no more than 0.25.

Take GLGW: the enrichment ratio is no more than 0.25.

On to GWID, for which the enrichment ratio was no more than 0.25.

Regarding HVGV, the enrichment ratio is no more than 0.25.

For GPEY, the enrichment ratio was no more than 0.25.

FQCH: the enrichment ratio is no more than 0.25.

For the variant YDLK, the enrichment ratio is no more than 0.25.

On to HPNV, for which the enrichment ratio was no more than 0.25.

For SGNC, the enrichment ratio was no more than 0.25.

Turning to VYFF, the enrichment ratio was no more than 0.25.

Take HRLY: the enrichment ratio is no more than 0.25.

Regarding AVIP, the enrichment ratio is no more than 0.25.

With YPPE, the enrichment ratio is no more than 0.25.

On to FTMG, for which the enrichment ratio was determined as 4.46.

Turning to YDYL, the enrichment ratio was no more than 0.25.

On to LSDR, for which the enrichment ratio was no more than 0.25.

Consider VCKF, for which the enrichment ratio was no more than 0.25.

Take EEDR: the enrichment ratio was no more than 0.25.

On to MFYI, for which the enrichment ratio was no more than 0.25.

With VTAV, the enrichment ratio was 0.389.

In the case of LYLE, the enrichment ratio was no more than 0.25.

With NDMQ, the enrichment ratio is no more than 0.25.

For the variant YETC, the enrichment ratio was no more than 0.25.

As to GVGR, the enrichment ratio is no more than 0.25.

As to QMLD, the enrichment ratio was no more than 0.25.

Take TLRK: the enrichment ratio is no more than 0.25.

On to TNKA, for which the enrichment ratio worked out at 2.74.

YELV: the enrichment ratio turned out to be 10.2.

Consider PLQM, for which the enrichment ratio is no more than 0.25.

With DFDS, the enrichment ratio is no more than 0.25.

Regarding EQSL, the enrichment ratio was no more than 0.25.

Regarding WQDF, the enrichment ratio is no more than 0.25.

As for DTTI, the enrichment ratio is no more than 0.25.

As for LIIV, the enrichment ratio was no more than 0.25.

Turning to EKIQ, the enrichment ratio is no more than 0.25.

For the variant TLCA, the enrichment ratio is 7.2.

Take TCTM: the enrichment ratio is 21.1.

For the variant RWCP, the enrichment ratio was no more than 0.25.

Turning to PGFR, the enrichment ratio is no more than 0.25.

FEGD: the enrichment ratio was no more than 0.25.

For the variant TMRW, the enrichment ratio is no more than 0.25.

Turning to LYGL, the enrichment ratio was no more than 0.25.

Turning to GDSN, the enrichment ratio is no more than 0.25.

Take NNPE: the enrichment ratio is no more than 0.25.

For the variant AQMD, the enrichment ratio was no more than 0.25.

For RQTG, the enrichment ratio was no more than 0.25.

HMTD: the enrichment ratio was no more than 0.25.

On to PAAT, for which the enrichment ratio is no more than 0.25.

Take LNCR: the enrichment ratio was no more than 0.25.

Consider PCSW, for which the enrichment ratio is no more than 0.25.

With HQKS, the enrichment ratio is no more than 0.25.

QPLE: the enrichment ratio is no more than 0.25.

Regarding PISR, the enrichment ratio was no more than 0.25.

Consider NETV, for which the enrichment ratio was 8.86.

Turning to MRTD, the enrichment ratio is no more than 0.25.

On to LKAQ, for which the enrichment ratio is no more than 0.25.

Regarding WFCH, the enrichment ratio is no more than 0.25.

Consider TKFR, for which the enrichment ratio was no more than 0.25.

FQNA: the enrichment ratio was no more than 0.25.

Regarding SNTF, the enrichment ratio amounted to 12.1.

On to EAPM, for which the enrichment ratio is no more than 0.25.

Take QIRV: the enrichment ratio was no more than 0.25.

In the case of PQSY, the enrichment ratio was no more than 0.25.

Regarding GSHE, the enrichment ratio was no more than 0.25.

Regarding KFPW, the enrichment ratio was no more than 0.25.

Turning to FEGM, the enrichment ratio is no more than 0.25.

GLQV: the enrichment ratio is no more than 0.25.

Consider RMWE, for which the enrichment ratio is no more than 0.25.

As to ARAG, the enrichment ratio is no more than 0.25.

With LTGH, the enrichment ratio is no more than 0.25.

As for QVHK, the enrichment ratio was no more than 0.25.

Regarding QWLM, the enrichment ratio is no more than 0.25.

On to PCFV, for which the enrichment ratio was no more than 0.25.

Consider QMII, for which the enrichment ratio is no more than 0.25.

With LYIE, the enrichment ratio is no more than 0.25.

Regarding RYNF, the enrichment ratio is no more than 0.25.

In the case of YMTA, the enrichment ratio stood at 0.317.

Regarding WLVK, the enrichment ratio is no more than 0.25.

On to NIGP, for which the enrichment ratio is no more than 0.25.

Turning to YKVF, the enrichment ratio was no more than 0.25.

Consider WSFS, for which the enrichment ratio was no more than 0.25.

On to SHTP, for which the enrichment ratio was no more than 0.25.

Turning to DAYN, the enrichment ratio was no more than 0.25.

As for LPPT, the enrichment ratio was no more than 0.25.

GNCT: the enrichment ratio was determined as 10.8.

Regarding HCER, the enrichment ratio is no more than 0.25.

Regarding VEHS, the enrichment ratio was no more than 0.25.

As to MDVA, the enrichment ratio was no more than 0.25.

Take MKYW: the enrichment ratio was no more than 0.25.

For the variant RLNT, the enrichment ratio is no more than 0.25.

Consider QQNA, for which the enrichment ratio stood at 4.98.

For the variant EAPF, the enrichment ratio was no more than 0.25.

As to SAPD, the enrichment ratio is no more than 0.25.

For the variant ASYK, the enrichment ratio was no more than 0.25.

On to EERM, for which the enrichment ratio is no more than 0.25.

Take AKEG: the enrichment ratio is no more than 0.25.

With GSSY, the enrichment ratio is no more than 0.25.
